The supplement of paper PMC4604168 (melanoma cell lines)
The other results are listed elsewhere or left out. Single values are uncertain, as repeats are few or missing.

These compounds were tested on LB2518-MEL (assay: cell count relative to DMSO control; melanoma cells; higher = more viable cells). Conditions: library dose: low library concentration; 72 h.
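Further: cell number obtained by counting DAPI-stained nuclei in high-throughput microscope images with image analysis software, screen run in 1,536-well plates.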

Row | SMILES | cell count [%]
1 | Nc1ccn([C@@H]2O[C@H](CO)[C@@H](O)C2(F)F)c(=O)n1 [gemcitabine] + O=c1cc(-c2cccc3c2Sc2ccccc2S3)oc(N2CCOCC2)c1 [KU55933] (first compound 0.0004 µM, partner dose 1 µM) | 132
2 | Nc1nc(F)nc2c1ncn2[C@@H]1O[C@H](CO)[C@@H](O)[C@@H]1O [fludarabine] + Oc1cc(-c2nc(-c3ccccc3)[nH]c2-c2ccncc2)ccc1Cl [L779450] (first compound 0.2 µM, partner dose 0.2 µM) | 75.6
3 | Nc1ccn([C@@H]2O[C@H](CO)[C@@H](O)C2(F)F)c(=O)n1 [gemcitabine] + CCN(CC)CCCCNc1ncc2cc(-c3cc(OC)cc(OC)c3)c(NC(=O)NC(C)(C)C)nc2n1 [PD173074] (first compound 0.0004 µM, partner dose 0.1 µM) | 93.3
4 | CC(=O)O[C@@]12CO[C@@H]1C[C@H](O)[C@@]1(C)C(=O)[C@H](O)C3=C(C)[C@@H](OC(=O)[C@H](O)[C@@H](NC(=O)OC(C)(C)C)c4ccccc4)C[C@@](O)([C@@H](OC(=O)c4ccccc4)[C@H]21)C3(C)C [Docetaxel] + CCCCCCCCCCCC1=C(O)C(=O)C=C(O)C1=O [Embelin] (first compound 0.0001 µM, partner dose 1.2 µM) | 63.6
5 | Nc1nc(F)nc2c1ncn2[C@@H]1O[C@H](CO)[C@@H](O)[C@@H]1O [fludarabine] + O=c1cc(-c2cccc3c2Sc2ccccc2S3)oc(N2CCOCC2)c1 [KU55933] (first compound 0.2 µM, partner dose 1 µM) | 90.5
6 | CO[C@H]1C[C@@H]2CC[C@@H](C)[C@@](O)(O2)C(=O)C(=O)N2CCCC[C@H]2C(=O)O[C@H]([C@H](C)C[C@@H]2CC[C@@H](OCCO)[C@H](OC)C2)CC(=O)[C@H](C)/C=C(\C)[C@@H](O)[C@@H](OC)C(=O)[C@H](C)C[C@H](C)/C=C/C=C/C=C/1C [everolimus] + O=c1cc(-c2cccc3c2Sc2ccccc2S3)oc(N2CCOCC2)c1 [KU55933] (first compound 0.02 µM, partner dose 1 µM) | 85.3
7 | CC(=O)O[C@@]12CO[C@@H]1C[C@H](O)[C@@]1(C)C(=O)[C@H](O)C3=C(C)[C@@H](OC(=O)[C@H](O)[C@@H](NC(=O)OC(C)(C)C)c4ccccc4)C[C@@](O)([C@@H](OC(=O)c4ccccc4)[C@H]21)C3(C)C [Docetaxel] + COc1ccc2c(c1)CCC1C2CCC2(C)C(NCCCCCCN3C(=O)C=CC3=O)CCC12 [U73122] (first compound 0.0001 µM, partner dose 0.4 µM) | 62
8 | CC(=O)O[C@@]12CO[C@@H]1C[C@H](O)[C@@]1(C)C(=O)[C@H](O)C3=C(C)[C@@H](OC(=O)[C@H](O)[C@@H](NC(=O)OC(C)(C)C)c4ccccc4)C[C@@](O)([C@@H](OC(=O)c4ccccc4)[C@H]21)C3(C)C [Docetaxel] + O=C(O)C(=O)Nc1sc2c(c1C(=O)O)CCNC2 [TCS401] (first compound 0.0001 µM, partner dose 1.66667 µM) | 73.7
9 | CO[C@H]1C[C@@H]2CC[C@@H](C)[C@@](O)(O2)C(=O)C(=O)N2CCCC[C@H]2C(=O)O[C@H]([C@H](C)C[C@@H]2CC[C@@H](OCCO)[C@H](OC)C2)CC(=O)[C@H](C)/C=C(\C)[C@@H](O)[C@@H](OC)C(=O)[C@H](C)C[C@H](C)/C=C/C=C/C=C/1C [everolimus] + c1cc(-c2cnn3cc(-c4ccc(OCCN5CCCCC5)cc4)cnc23)ccn1 [Dorsomorphin] (first compound 0.02 µM, partner dose 0.4 µM) | 85.7
10 | CC(=O)c1c(C)c2cnc(Nc3ccc(N4CCNCC4)cn3)nc2n(C2CCCC2)c1=O [palbociclib] + Oc1cc(-c2nc(-c3ccccc3)[nH]c2-c2ccncc2)ccc1Cl [L779450] (first compound 0.04 µM, partner dose 0.2 µM) | 79.2
11 | Nc1ncn([C@H]2C[C@H](O)[C@@H](CO)O2)c(=O)n1 [decitabine] + O=C(Nc1ccccc1)c1cc([N+](=O)[O-])ccc1Cl [GW9662] (first compound 0.1 µM, partner dose 2 µM) | 97.8
12 | Nc1nc(F)nc2c1ncn2[C@@H]1O[C@H](CO)[C@@H](O)[C@@H]1O [fludarabine] + c1cc(-c2cnn3cc(-c4ccc(OCCN5CCCCC5)cc4)cnc23)ccn1 [Dorsomorphin] (first compound 0.2 µM, partner dose 0.4 µM) | 93.1
13 | CO[C@H]1C[C@@H]2CC[C@@H](C)[C@@](O)(O2)C(=O)C(=O)N2CCCC[C@H]2C(=O)O[C@H]([C@H](C)C[C@@H]2CC[C@@H](OCCO)[C@H](OC)C2)CC(=O)[C@H](C)/C=C(\C)[C@@H](O)[C@@H](OC)C(=O)[C@H](C)C[C@H](C)/C=C/C=C/C=C/1C [everolimus] + O=C(Nc1ccccc1)c1cc([N+](=O)[O-])ccc1Cl [GW9662] (first compound 0.02 µM, partner dose 2 µM) | 71.9
14 | CC(=O)c1c(C)c2cnc(Nc3ccc(N4CCNCC4)cn3)nc2n(C2CCCC2)c1=O [palbociclib] + COC(=O)c1sccc1S(=O)(=O)Nc1ccc(Nc2ccccc2)cc1OC [GSK0660] (first compound 0.04 µM, partner dose 1 µM) | 74.6
15 | CO[C@H]1C[C@@H]2CC[C@@H](C)[C@@](O)(O2)C(=O)C(=O)N2CCCC[C@H]2C(=O)O[C@H]([C@H](C)C[C@@H]2CC[C@@H](OCCO)[C@H](OC)C2)CC(=O)[C@H](C)/C=C(\C)[C@@H](O)[C@@H](OC)C(=O)[C@H](C)C[C@H](C)/C=C/C=C/C=C/1C [everolimus] + Cn1cc(/C=C2\C(=O)Nc3cccnc32)c2ccccc21 [GW441756] (first compound 0.02 µM, partner dose 0.4 µM) | 82.8
16 | CO[C@H]1C[C@@H]2CC[C@@H](C)[C@@](O)(O2)C(=O)C(=O)N2CCCC[C@H]2C(=O)O[C@H]([C@H](C)C[C@@H]2CC[C@@H](OCCO)[C@H](OC)C2)CC(=O)[C@H](C)/C=C(\C)[C@@H](O)[C@@H](OC)C(=O)[C@H](C)C[C@H](C)/C=C/C=C/C=C/1C [everolimus] + CCN(CC)CCCCNc1ncc2cc(-c3cc(OC)cc(OC)c3)c(NC(=O)NC(C)(C)C)nc2n1 [PD173074] (first compound 0.02 µM, partner dose 0.1 µM) | 59.7
17 | Nc1ccn([C@@H]2O[C@H](CO)[C@@H](O)C2(F)F)c(=O)n1 [gemcitabine] + O=C1NC(=O)/C(=C/c2ccc(-c3ccc(F)cc3O)o2)S1 [AS252424] (first compound 0.0004 µM, partner dose 1 µM) | 89.2
18 | Nc1ccn([C@@H]2O[C@H](CO)[C@@H](O)C2(F)F)c(=O)n1 [gemcitabine] + Oc1nc(-c2ccc(C(F)(F)F)cc2)nc2c1CSCC2 [XAV939] (first compound 0.0004 µM, partner dose 2 µM) | 94.3
19 | Nc1ccn([C@@H]2O[C@H](CO)[C@@H](O)C2(F)F)c(=O)n1 [gemcitabine] + O=S(=O)(c1ccccc1)N(CC(F)(F)F)c1ccc(C(O)(C(F)(F)F)C(F)(F)F)cc1 [T0901317] (first compound 0.0004 µM, partner dose 1.4 µM) | 94.1
20 | Nc1nc(F)nc2c1ncn2[C@@H]1O[C@H](CO)[C@@H](O)[C@@H]1O [fludarabine] + CCc1ccc(CCOc2ccc(CC3SC(=O)NC3=O)cc2)nc1 [pioglitazone] (first compound 0.2 µM, partner dose 2 µM) | 90.4
21 | CC(=O)c1c(C)c2cnc(Nc3ccc(N4CCNCC4)cn3)nc2n(C2CCCC2)c1=O [palbociclib] + Cc1cc([N+](=O)[O-])ccc1NS(=O)(=O)c1cc(Cl)ccc1Cl [FH535] (first compound 0.04 µM, partner dose 1 µM) | 73.4
22 | CC(=O)O[C@@]12CO[C@@H]1C[C@H](O)[C@@]1(C)C(=O)[C@H](O)C3=C(C)[C@@H](OC(=O)[C@H](O)[C@@H](NC(=O)OC(C)(C)C)c4ccccc4)C[C@@](O)([C@@H](OC(=O)c4ccccc4)[C@H]21)C3(C)C [Docetaxel] + N#Cc1c(O)c2c(-c3ccc(-c4ccccc4O)cc3)csc2[nH]c1=O [A769662] (first compound 0.0001 µM, partner dose 2 µM) | 66.3
23 | Nc1ncn([C@H]2C[C@H](O)[C@@H](CO)O2)c(=O)n1 [decitabine] + COC(=O)c1sccc1S(=O)(=O)Nc1ccc(Nc2ccccc2)cc1OC [GSK0660] (first compound 0.1 µM, partner dose 1 µM) | 87.9
24 | CO[C@H]1C[C@@H]2CC[C@@H](C)[C@@](O)(O2)C(=O)C(=O)N2CCCC[C@H]2C(=O)O[C@H]([C@H](C)C[C@@H]2CC[C@@H](OCCO)[C@H](OC)C2)CC(=O)[C@H](C)/C=C(\C)[C@@H](O)[C@@H](OC)C(=O)[C@H](C)C[C@H](C)/C=C/C=C/C=C/1C [everolimus] + COc1ccc2c(c1)CCC1C2CCC2(C)C(NCCCCCCN3C(=O)C=CC3=O)CCC12 [U73122] (first compound 0.02 µM, partner dose 0.4 µM) | 72.8
